# The campaign covered roughly 200,000 compounds. About 10 (0.005%) were called active. Inconclusive results, whose numbers are uncertain, are shown with a selection of clear calls. The call rests on the fitted dose curve; in most records, active means well fitted inhibition curve with a large enough effect; inconclusive means small, poorly fitted or top-dose-only effect, or effect the other way, or another doubt; inactive means no such curve, though single readings can be large or run the other way. Where the call is inconclusive, the potency comes from a doubtful curve fit.
# Target: Lysosomal alpha-glucosidase (Homo sapiens) (UniProt P10253)
# Assay: qHTS Assay for Inhibitors of Human alpha-Glucosidase as a Potential Chaperone Treatment of Pompe Disease;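 on activity change, negative = inhibition: plate controls were uninhibited enzyme wells for no effect and no-enzyme background for full effect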
# Conditions: purified human GAA, 4-MU-alpha-glucoside fluorescence; activity change, negative = inhibition: at 76.9 µM (top of the series) unless noted
# Procedure, shortened: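 Human enzyme at 4 nM with 400 uM 4-methylumbelliferyl-alpha-D-pyranoside, citrate/phosphate buffer pH 5.0, 0.005% Tween-20, 20 min at room temperature. Compounds up to 77 uM. 4-MU fluorescence (Ex 365/Em 440) read after NaOH/glycine stop; AC50 from Hill fit.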
# Potency means the concentration at half of the fitted maximal effect; tags describe the fitted curve by direction and shape.
SMILES,Potency,"activity change, negative = inhibition"
O=C(Nc1ccc2c(c1)OCO2)C(c1ccccc1)N1CCC2(CC1)OCCO2 (stereo not drawn),inactive,
O=C(C1CCN(S(=O)(=O)c2ccc(Br)s2)CC1)N1CCN(C2CCCCC2)CC1,inactive,
O=C(O)CSc1cccc2cccnc12,,inconclusive: 16.6% [activator] [at 15.4 µM]
COc1ccccc1C(=O)N1CCN(CCc2ccccc2)CC1,"inconclusive: 5.01 µM [inhibitor, partial curve]",
Cc1occc1C(=O)Nc1cccc2ccccc12,"inconclusive: 0.447 µM [inhibitor, full curve, poor fit]",
Cc1cccc(S(=O)(=O)Nc2ccc(-c3nc4ccc(C)cc4s3)cc2)c1,"inconclusive: 31.6 µM [activator, partial curve]",
COC(=O)C1=CN(Cc2cccs2)C=C(C(=O)OC)C1c1cccc(Cl)c1,"inconclusive: 35.5 µM [activator, partial curve]",
COC(=O)c1ccc(CSc2nnc(CS(=O)Cc3ccc(Br)cc3)n2-c2ccccc2)cc1 (stereo not drawn),"inconclusive: 50.1 µM [inhibitor, single point]",
COCCCN1CCN(C2Cc3ccccc3Sc3ccc(Cl)cc32)CC1 (stereo not drawn),,inconclusive: -15.3% [inhibitor]
Cc1ccc(C(=O)N2c3ccccc3CC2C)o1 (stereo not drawn),inactive,
CCN(CCO)C(=S)Nc1cc(S(=O)(=O)N(C)C)ccc1C,inactive,
CCOC(=O)Cc1ccc(NC(=O)c2ccc(C(C)(C)C)cc2)cc1,,inconclusive: -15.7% [inhibitor]
COc1ccccc1Nc1nc2c(s1)CCC2,"inconclusive: 7.94 µM [inhibitor, single point]",
O=C(c1cn(-c2ccccc2)nc1-c1ccc(Cl)cc1)N1CCOCC1,"inconclusive: 5.01 µM [inhibitor, single point]",
COc1ccc(C(CNC(=O)Cc2ccccc2F)N2CCCCC2)cc1 (stereo not drawn),,inconclusive: -19% [inhibitor]
O=C(N/N=C/c1ccc(O)cc1O)c1ccc(CN2C(=O)c3cccc4cccc2c34)cc1,"inconclusive: 39.8 µM [inhibitor, single point]",
O=C(Nc1ccccc1)Nc1cc(OCC(F)(F)F)cc(OCC(F)(F)F)c1,"inconclusive: 4.47 µM [inhibitor, single point]",
O=c1[nH]c2cc3c(cc2cc1CN(CCCO)C(=S)NCc1ccco1)OCO3,,inconclusive: 27.3% [activator]
CC1CCCN(CCC(=O)Nc2ccc(Br)cc2)C1 (stereo not drawn),"inconclusive: 11.2 µM [inhibitor, single point]",
COc1ccc(CC(NC(C)=O)C(=O)NC2CCN(S(=O)(=O)c3ccc(NC(C)=O)cc3)CC2)cc1OC (stereo not drawn),,inconclusive: 17.2% [activator]
Cc1[nH]c2ccccc2c1C(=O)COC(=O)Cn1c(C)nc2ccccc21,"inconclusive: 50.1 µM [inhibitor, single point]",
C=CCc1cccc2cc(C(=O)Nc3ccc(NC(C)=O)cc3)c(=O)oc12,,inconclusive: 12.7% [activator]

SMILES,Potency,"activity change, negative = inhibition"
COc1ccc(C)cc1NC(=O)CN1CCN(S(=O)(=O)c2ccc(Br)cc2)CC1,"inconclusive: 31.6 µM [inhibitor, partial curve]",
Cn1c(SCC(=O)NC2CC2)nnc1-c1cccc(NC(=O)c2ccccc2F)c1,"inconclusive: 0.224 µM [activator, full curve, poor fit]",
COc1ccc(/C=C(/NC(=O)/C=C/c2ccccc2)C(=O)N2CCOCC2)cc1,"inconclusive: 0.316 µM [inhibitor, full curve]",
Fc1ccc(C2=CC(c3ccc(Br)o3)n3ncnc3N2)cc1 (stereo not drawn),"inconclusive: 14.1 µM [activator, partial curve]",
Cc1ccc(C(=O)NC(=O)CSc2ncccc2C(=O)O)cc1,,inconclusive: -18.1% [inhibitor]
CCn1c(CNC(=O)c2ccco2)nnc1SCC(=O)Nc1cc(C)c(C)cc1Br,"inconclusive: 39.8 µM [inhibitor, single point]",
N#CC1=C(SCC(=O)Nc2ccccc2)NC(=O)CC1c1ccc(O)cc1 (stereo not drawn),,inconclusive: -15.4% [inhibitor]
CCOC(=O)C1=C(O)C(=O)N(Cc2cccnc2)C1c1ccc(C)cc1 (stereo not drawn),,inconclusive: 17.6% [activator]
Cc1nc2ccc(NC(=O)Cc3ccc4c(c3)OCCO4)cc2s1,"inconclusive: 50.1 µM [inhibitor, partial curve]",
Cc1cc(C)nc(N(C#N)Cc2cccc3ccccc23)n1,,inconclusive: -15.3% [inhibitor]
N#Cc1c(N)c(C#N)c(-c2ccc(O)cc2)c2c1CCCC2,"inconclusive: 31.6 µM [inhibitor, single point]",
C=CCn1c(=N)c(C(=O)NCCCOC)cc2c(=O)n3ccccc3nc21,"inconclusive: 25.1 µM [activator, partial curve]",
CCc1ccccc1NC(=O)c1cnc2scc(C)n2c1=O,"inconclusive: 28.2 µM [activator, single point]",
CCC/C=C(\CCC)C(NS(=O)(=O)c1ccc(C(F)(F)F)cc1)c1ccccc1 (stereo not drawn),"inconclusive: 6.31 µM [inhibitor, single point]",
O=C(c1ccc(F)cc1)n1c(NCc2ccccc2)n[nH]c1=S,,inconclusive: 23.2% [activator]
COCCN=c1scc(-c2ccccc2)n1/N=C/c1c[nH]c2ccccc12,inactive,
CC(=O)Nc1cccc(NC(=O)CSc2nnnn2C(C)C)c1,"inconclusive: 5.01 µM [inhibitor, partial curve]",
COC(=O)c1ccc2c(=O)n(CCCCCC(=O)NC(C)C)c(=O)[nH]c2c1,"inconclusive: 25.1 µM [activator, partial curve]",
CC(C)=CCN1CCN(Cc2ccc(C#CC(C)(C)O)cc2)CC1CCO (stereo not drawn),"inconclusive: 7.94 µM [inhibitor, single point]",
C/C(CC(=O)NC12CC3CC(CC(C3)C1)C2)=N\NC(=O)c1ccc(C)cc1,,inconclusive: 21.3% [activator]
Cc1ccccc1CS(=O)(=O)c1snnc1C,"inconclusive: 31.6 µM [inhibitor, single point]",

# — PubChem BioAssay AID1466 (National Center for Advancing Translational Sciences (NCATS), 2008)
